Measurements published in the RNAGym collection of RNA variant scans (doi:10.7554/elife.90254).
The source gives no read counts; variants with many changes may rest on few reads.

B1: LINE1-mini (parent)
chain: GGCAGAGCUCAACACAGCGUGGCAAAGUGGCUGUGGCUAGACUGCC

Variants of: B1
Assay: self-cleavage, relative activity (ratio to wild type); higher = more cleavage; in vitro, sequencing; the parent is a self-cleaving ribozyme

Which self-cleavage does the source give for G5C U9A C18A G22C A25G A39G here?
The self-cleavage was 0.03.

Which self-cleavage does the source give for C3A A6C G7A G22C C31U U32A here?
The self-cleavage was 0.01.

Which self-cleavage does the source give for U9C C13A G40A C46U here?
Its self-cleavage is 0.

For U20C A25U G29C A39U, which self-cleavage is on record?
Its self-cleavage is 0.23.

Which self-cleavage does the source give for C3U G22C G33A here?
Its self-cleavage is 0.14.

With G21U G27U G30C as the variant, how does the self-cleavage read?
The self-cleavage was 2.7.

For C15G G19A C31G, which self-cleavage is on record?
Its self-cleavage is 0.02.

For G21A G30A C42U C45U, which self-cleavage is on record?
The self-cleavage was 0.48.

For C23U A25U G35A U43A, which self-cleavage is on record?
The self-cleavage was 0.07.

For G7C A11C C37U, which self-cleavage is on record?
The self-cleavage was 0.02.

With C13U C15U G21A G22U G40C as the variant, how does the self-cleavage read?
Its self-cleavage is 0.14.

With G7A G22U C31U U34A as the variant, how does the self-cleavage read?
The self-cleavage was 0.03.

With A12G U20C G27U A39U as the variant, how does the self-cleavage read?
Its self-cleavage is 0.02.

With A12C C23G G27U as the variant, how does the self-cleavage read?
The self-cleavage was 0.02.

Which self-cleavage does the source give for C15G A25G G36C G40U here?
Its self-cleavage is 0.01.

For A4G C10A A12C C31A C45A, which self-cleavage is on record?
Its self-cleavage is 0.

For C3G C8G C15U A16C G19C A26C G36C, which self-cleavage is on record?
Its self-cleavage is 0.02.

For G33A U34A U38G G40A, which self-cleavage is on record?
Its self-cleavage is 0.11.

For A4C A14U C31A G44C, which self-cleavage is on record?
Its self-cleavage is 0.03.

For C3G G21C A26U A39U, which self-cleavage is on record?
The self-cleavage was 0.07.

With U28C G30C G44U as the variant, how does the self-cleavage read?
The self-cleavage was 0.53.

Which self-cleavage does the source give for G1U U9A C31U here?
Its self-cleavage is 0.01.

For C10U C13A G27A A39U, which self-cleavage is on record?
Its self-cleavage is 0.04.

Which self-cleavage does the source give for A14C G36A G44C here?
Its self-cleavage is 0.09.

For G5C U9A G22A A24U C42U, which self-cleavage is on record?
The self-cleavage was 0.03.

With C3A U9G G22U A41G as the variant, how does the self-cleavage read?
Its self-cleavage is 0.21.

With C3A A14G A24U as the variant, how does the self-cleavage read?
The self-cleavage was 0.32.

With G2U C3A A14G A24C G33C as the variant, how does the self-cleavage read?
Its self-cleavage is 0.13.

With A4G G5U A11U U20G G30A C31U as the variant, how does the self-cleavage read?
Its self-cleavage is 0.01.

Which self-cleavage does the source give for G17U G27A G30U here?
Its self-cleavage is 1.49.

With G29U G35C G40U C46G as the variant, how does the self-cleavage read?
The self-cleavage was 0.21.

For C13A G22C G30U, which self-cleavage is on record?
The self-cleavage was 0.03.

Which self-cleavage does the source give for G5C A12C C18U U20C G21U here?
The self-cleavage was 0.01.

With C8G A24G G35A as the variant, how does the self-cleavage read?
Its self-cleavage is 0.03.

Which self-cleavage does the source give for A6U U20A A25C here?
The self-cleavage was 0.85.

For G5C U9A A24G U32C, which self-cleavage is on record?
Its self-cleavage is 0.05.

With G1U C18A G29A G36A as the variant, how does the self-cleavage read?
The self-cleavage was 0.01.

With C10A C18U C46A as the variant, how does the self-cleavage read?
Its self-cleavage is 0.07.

Which self-cleavage does the source give for C3G G22C A39U here?
Its self-cleavage is 0.08.

With C10A U20A C23A G44A C45U as the variant, how does the self-cleavage read?
Its self-cleavage is 0.

For G7U G27U C31A, which self-cleavage is on record?
Its self-cleavage is 0.06.

Which self-cleavage does the source give for C13G C31A C45G here?
The self-cleavage was 0.01.

With C10U G19U G21A A41U as the variant, how does the self-cleavage read?
The self-cleavage was 0.05.

With G5U C18G G21U U28C G36U as the variant, how does the self-cleavage read?
Its self-cleavage is 0.05.

Which self-cleavage does the source give for C10A G17A A25C U34C A41C here?
The self-cleavage was 0.1.

Which self-cleavage does the source give for G17C G29U U34G C45A here?
Its self-cleavage is 0.05.

Which self-cleavage does the source give for A6U U43G G44A here?
The self-cleavage was 0.01.

Which self-cleavage does the source give for C10A G22A A26U A41C here?
The self-cleavage was 0.02.

For C10A G22U U28C, which self-cleavage is on record?
Its self-cleavage is 0.12.

Which self-cleavage does the source give for U20A U43G C45U here?
The self-cleavage was 0.01.

For C8A C15G C46U, which self-cleavage is on record?
Its self-cleavage is 0.18.

Which self-cleavage does the source give for C15U A25G G44A here?
Its self-cleavage is 0.05.

Which self-cleavage does the source give for G2A C8G A25U here?
Its self-cleavage is 0.03.

With A6G C15U C23G as the variant, how does the self-cleavage read?
The self-cleavage was 0.11.

With C13A C15U A24C C42U as the variant, how does the self-cleavage read?
The self-cleavage was 0.03.

For G1A G2C A39G, which self-cleavage is on record?
Its self-cleavage is 0.18.

For C3G G5A C10G C31U A39U, which self-cleavage is on record?
The self-cleavage was 0.02.

Which self-cleavage does the source give for C3U A26U C37A here?
Its self-cleavage is 0.18.

Which self-cleavage does the source give for C15U A25G U28G here?
Its self-cleavage is 0.17.

Which self-cleavage does the source give for A11U C13A G27A G29A here?
Its self-cleavage is 0.01.

For C10G G22C G40C C45A, which self-cleavage is on record?
The self-cleavage was 0.

With C13A C18G G36A G40U as the variant, how does the self-cleavage read?
Its self-cleavage is 0.14.

With C10A G22U G29C U32C as the variant, how does the self-cleavage read?
Its self-cleavage is 0.04.

For U28G C31U C42U, which self-cleavage is on record?
The self-cleavage was 0.14.

For A11G A41G G44C, which self-cleavage is on record?
The self-cleavage was 0.03.

For A14G A24G U32G U38A A41G, which self-cleavage is on record?
Its self-cleavage is 0.11.

With C8U C18G G22C A26C as the variant, how does the self-cleavage read?
Its self-cleavage is 0.28.

Which self-cleavage does the source give for A14G G36U C37U A39C here?
The self-cleavage was 0.03.

Which self-cleavage does the source give for G30U G33U A41U here?
Its self-cleavage is 0.26.

For G5A A16C U20A, which self-cleavage is on record?
The self-cleavage was 0.3.

With G30U A39G C42A as the variant, how does the self-cleavage read?
The self-cleavage was 0.06.

Which self-cleavage does the source give for A4G G27U A39U C42U here?
The self-cleavage was 0.06.

For C3A U43G G44C, which self-cleavage is on record?
The self-cleavage was 0.05.

With G2U C3G A24U U34C G44C as the variant, how does the self-cleavage read?
The self-cleavage was 0.06.

With G7U U32A G33A as the variant, how does the self-cleavage read?
The self-cleavage was 0.02.

With C10G A41U C42U G44U as the variant, how does the self-cleavage read?
Its self-cleavage is 0.

With G2U A4C C42U G44U as the variant, how does the self-cleavage read?
Its self-cleavage is 0.03.

Which self-cleavage does the source give for G33U U34A G36A here?
Its self-cleavage is 0.

For C3A A12C G17A C23U G40C, which self-cleavage is on record?
Its self-cleavage is 0.03.

With C10A G40U C45A as the variant, how does the self-cleavage read?
The self-cleavage was 0.02.

For U9G G19U G29A, which self-cleavage is on record?
Its self-cleavage is 0.04.

With G2U G5A C46A as the variant, how does the self-cleavage read?
The self-cleavage was 0.07.

With C23G A26G G30U as the variant, how does the self-cleavage read?
Its self-cleavage is 0.6.
